Experimental data from PubChem BioAssay AID686979 (National Center for Advancing Translational Sciences (NCATS), 2013).
“And” between values parts separate entries of the source, which are not always exact repeats. Equal entries are not always repeated. In all, about 420,000 compounds went through this assay and about 50,000 (12%) were called active. Inconclusive means that the source gave no clear call. Such entries were picked first, then a sample of the others. Calls come from the whole dose curve; as a rule, active = well fitted inhibition curve with a large enough effect; inconclusive = small, poorly fitted or top-dose-only effect; inactive = flat fitted curve, though single readings scatter. Potencies beside an inconclusive call are fits to weak or partial responses and may not hold up. Some structures have more than one record in an assay (separate samples or runs), and their calls can disagree.
% is set by controls: 0 for no effect and ±100 for the full control effect; potency is the fitted concentration of half-maximal effect; tags give direction and shape of the fitted curve.

Assay: qHTS for Inhibitors of human tyrosyl-DNA phosphodiesterase 1 (TDP1): qHTS in cells in presence of CPT; note: nearly all actives have a fitted effect of over 55% in size
Conditions: chicken DT40 Tdp1-/-;hTDP1 cells + 20 nM CPT, ATP luminescence, 48 h; activity change, negative = growth inhibition: at 46.2 µM (top of the series) unless noted
In short: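 Chicken DT40 Tdp1-/- cells complemented with human TDP1, 400 cells/well, exposed to compounds plus 20 nM camptothecin for at least 48 h at 37 C; viability read as ATP content by CellTiter-Glo luminescence.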
With CCN(CC)C(=O)COC(=O)c1cc(-c2ccc(OC)cc2)nc2ccccc12 the Potency was inconclusive: 20.6 µM [inhibitor, single point]. For CCN1CCN(c2ccc(S(=O)(=O)N3CCCCC3)cc2NC(=O)CC(C)c2ccccc2)CC1 (stereo not drawn), the Potency was inconclusive: 23.1 µM [inhibitor, single point]. In the case of CCC(=O)Nc1cccc(NC(=S)NC(=O)c2ccc(C)cc2)c1, the Potency is reported as inconclusive: 16.4 µM [inhibitor, single point]. For O=C(O)CCC1(CCC(=O)O)CCCC(CCC(=O)O)(CCC(=O)O)C1=O, the Potency was “inactive”. For Cn1c(CC2C(=O)Nc3ccc(Br)cc32)nc2ccccc2c1=O (stereo not drawn), the Potency was inconclusive: 0.164 µM [inhibitor, full curve]. With CC(=O)Nc1ccc(N(C(=O)CNC(=O)c2ccco2)C(C(=O)NCC2CCCO2)c2ccccc2)cc1 (stereo not drawn) the Potency was inconclusive: 2.06 µM [inhibitor, partial curve, poor fit]. With CC(NC(=O)/C=C/c1cnc2ccccc2n1)C12CC3CC(CC(C3)C1)C2 (stereo not drawn) the Potency was inconclusive: 25.9 µM [inhibitor, single point]. For C=CCn1c(C)cc(C(=O)CSc2nc3ccccc3c(=O)[nH]2)c1C, the Potency was active: 16.4 µM. For Cc1cc(=O)oc2c3c(cc(OCC(=O)NC(Cc4ccc(Cl)cc4)C(=O)O)c12)OC(C)(C)CC3 (stereo not drawn), the Potency was inconclusive: 32.6 µM [inhibitor, partial curve, poor fit]. With O=C(CN1C(=O)COc2ccc(S(=O)(=O)N3CCCC3)cc21)NCCc1ccc(Cl)cc1 the Potency was inconclusive: 29.1 µM [inhibitor, single point]. With CCN1CCn2c3c(c4cc(Cl)ccc42)CCCC31 (stereo not drawn) the Potency was inconclusive: 32.6 µM [inhibitor, single point]. For COc1cccc(C(C)(O)c2nc(-c3cncnc3)cs2)c1 (stereo not drawn), the Potency was inconclusive: 20.6 µM [inhibitor, single point]. For Cc1ccccc1NC(=O)c1onc2c1CCCC2, the Potency was inconclusive: 20.6 µM [inhibitor, single point]. With Cc1nc(-n2nc(C)c(CCC(C)C)c2C)sc1C(=O)Nc1cccc(Cl)c1C the Potency was “inactive”. With Cc1ccc(OCCNc2cc(N3CCN(CCO)CC3)ccc2[N+](=O)[O-])cc1C the Potency was inconclusive: 20.6 µM [inhibitor, single point]. In the case of CCOC(=O)c1c(NC(=O)c2ccccc2C)sc2c1CCCC2, the Potency is reported as “inactive”. In the case of Cc1cccc(C(=O)N2CCN(c3ncnc4c3cnn4-c3ccccc3)CC2)c1, the Potency is reported as inconclusive: 29.1 µM [inhibitor, single point]. With OCC1OC(n2ccc3c(NO)ncnc32)C(O)C1O (stereo not drawn) the Potency was active: 0.146 µM. For Cc1c(C(=O)N2CCCC2)sc(NC(=O)c2ccc(Cl)cc2)c1C#N, the Potency was “inactive”. In the case of CCOc1cc(CN2CCN(c3cccc(C(F)(F)F)c3)CC2)ccc1O, the Potency is reported as active: 16.4 µM. For Cn1c(=O)cc(OCCCC(=O)Nc2cccc(Cl)c2)c2ccccc21, the Potency was inconclusive: 29.1 µM [inhibitor, single point]. For CC1CCN(c2nn3c(=O)c(C(=O)NCCc4ccc(Cl)cc4)cnc3s2)CC1, the Potency was inconclusive: 0.82 µM [inhibitor, partial curve, poor fit]. With COc1cc(OC)c(C(=O)CCCN2CCCC2)c(OC)c1 the Potency was inconclusive: 32.6 µM [inhibitor, single point]. With CC(=O)NCCc1c[nH]c2ccc(O)cc12 the Potency was active: 18.4 µM. For COc1ccc2oc(=O)cc(CN3CCN(C(=O)c4ccccc4Br)CC3)c2c1, the Potency was inconclusive: 29.1 µM [inhibitor, single point]. In the case of CC1(C)CCc2cc(-c3ccnc(=S)[nH]3)ccc2O1, the Potency is reported as inconclusive: 29.1 µM [inhibitor, single point]. In the case of Cn1cnc([N+](=O)[O-])c1SCC(=O)NN, the Potency is reported as “inactive”. With O=C(NC(=S)NCC1CCCO1)c1ccccc1Br (stereo not drawn) the Potency was “inactive”. In the case of O=C(N1CCN(Cc2ccccc2)CC1)C12CC3CC(CC(C3)C1)C2, the activity change, negative = growth inhibition is reported as inconclusive: -12.3% [inhibitor]. For CCOc1ccc2nc(N3CCN(C(=O)C(C)C)CC3)sc2c1, the Potency was inconclusive: 29.1 µM [inhibitor, single point]. In the case of COC(=O)C1=C(C(=O)OC)[C@@H]2N(Cc3ccccc3)c3ccccc3[C@@]23C[C@@H](C(=O)OC)N(C(=O)c2ccc(Br)cc2)C3=N1, the Potency is reported as inconclusive: 25.9 µM [inhibitor, single point]. In the case of Cn1nnnc1SCCCNCc1ccc(-c2cccc(Cl)c2)o1, the Potency is reported as inconclusive: 29.1 µM [inhibitor, single point]. For COc1ccc2[nH]c(S(=O)Cc3ncc(C)c(OC)c3C)nc2c1 (stereo not drawn), the Potency was inconclusive: 9.2 µM [inhibitor, single point] and inconclusive: 25.9 µM [inhibitor, single point]. In the case of CCC1CCCCN1C(=O)CCn1c(=O)oc2ccccc21 (stereo not drawn), the Potency is reported as “inactive”. For c1cc(-c2cn(C[C@H]3CC[C@@H]([C@@H]4CC[C@H](Cn5cc(-c6ccsc6)nn5)O4)O3)nn2)cs1, the Potency was inconclusive: 32.6 µM [inhibitor, single point]. With COc1cccc(C2=Cc3ccc(F)cc3C(CC(C)=O)N2c2ccc(-c3cncnc3)cc2)c1 (stereo not drawn) the Potency was active: 13 µM. In the case of Nc1cc(=O)[nH]c(SCC(=O)N2N=C(c3ccc(Cl)cc3)CC2c2ccco2)n1 (stereo not drawn), the Potency is reported as active: 18.4 µM. In the case of CCc1nc2ccc(C(=O)N(C)C(C)C)cn2c1N(CC)Cc1cccc(Br)c1, the Potency is reported as inconclusive: 29.1 µM [inhibitor, single point]. With Cc1ccc(-c2csc(C(O)c3ccc(F)cc3)n2)cc1C (stereo not drawn) the Potency was inconclusive: 29.1 µM [inhibitor, single point]. In the case of CCOc1ccc(-n2nnnc2SCC(=O)Nc2cccc(O)c2)cc1, the Potency is reported as inconclusive: 16.4 µM [inhibitor, partial curve, poor fit]. With Brc1[nH]nc2ccccc12 the Potency was “inactive”. With CC(=O)/C=C1\OCc2cc(OCc3ccccc3)ccc21 the Potency was inconclusive: 18.4 µM [inhibitor, single point]. With Cc1ccccc1-n1c2nc(=O)[nH]c(=O)c-2cc2c(Cl)cccc21 the Potency was active: 0.82 µM. In the case of CCOc1nc(-c2ccccc2)c2cc(C)ccc2n1, the Potency is reported as inconclusive: 13 µM [inhibitor, single point]. With COc1ccc(-c2cc(C(=O)N3CCN(c4ccccc4O)CC3)c3ccccc3n2)cc1OC the Potency was inconclusive: 25.9 µM [inhibitor, single point]. For CCOCCn1c(=O)c2c(nc3n2CC(C)CN3CCc2ccccc2)n(C)c1=O (stereo not drawn), the Potency was active: 25.9 µM. For Cc1cccc(Cn2c(SCc3ccc(C(=O)NCc4cccs4)cc3)nc3cccnc32)c1, the Potency was inconclusive: 13 µM [inhibitor, single point]. With O=C(c1cccc2ccccc12)C1CCCN(C(=O)CCc2cnccn2)C1 (stereo not drawn) the Potency was inconclusive: 29.1 µM [inhibitor, single point]. With COC(=O)c1cc(NC(=O)c2c(-c3ccccc3)noc2C)ccc1N1CCOCC1 the Potency was inconclusive: 29.1 µM [inhibitor, single point]. For CCOC(=O)c1c(C)[nH]c(C)c1S(=O)(=O)N1CCCC(C(=O)Nc2ccc(OC)c(OC)c2)C1 (stereo not drawn), the Potency was “inactive”. With CCCNC(=O)c1ccc(N2CCC3(CC2)CC(c2cccc(Br)c2)=NO3)c(NC(=O)c2cccc(OC)c2)c1 the Potency was inconclusive: 5.8 µM [inhibitor, full curve]. For COc1cccc(CNC(=O)CCC2CCCN(C(=O)c3cccc4c(C)c(C)[nH]c34)C2)c1 (stereo not drawn), the Potency was inconclusive: 13 µM [inhibitor, partial curve, poor fit]. For C/C(=N\O)c1ccc2c3c([nH]c2c1)CCCC3, the Potency was inconclusive: 5.8 µM [inhibitor, single point]. In the case of Cc1ccc(-n2ccnc(NCCc3ccccc3)c2=O)cc1C, the Potency is reported as inconclusive: 16.4 µM [inhibitor, partial curve]. In the case of COc1ccc(NC(=O)CSc2nnc(-c3nonc3NC(C)=O)n2C)cc1Cl, the activity change, negative = growth inhibition is reported as inconclusive: -32.4% [inhibitor]. In the case of Cn1c(CC(=O)Nc2ccccc2)nnc1SCCOc1ccccc1, the Potency is reported as inconclusive: 18.4 µM [inhibitor, single point]. In the case of O=C(COc1ccc([N+](=O)[O-])cc1)NCc1ccncc1, the Potency is reported as “inactive”. With COc1ccccc1CNC(=O)C(=O)NCCC1CCCCN1S(=O)(=O)c1ccc(C)cc1 (stereo not drawn) the Potency was inconclusive: 29.1 µM [inhibitor, single point]. For Cc1onc(-c2ccccc2)c1-c1nnc(CN2CCN(S(=O)(=O)c3ccccc3F)CC2)o1, the Potency was active: 20.6 µM. For CC(C)CCOP(=O)(c1ccc(N(C)C)cc1)C(O)c1ccc(N(C)C)cc1 (stereo not drawn), the Potency was inconclusive: 7.31 µM [inhibitor, partial curve]. In the case of C=CCNC(=O)CSc1nc2sc3c(c2c(=O)n1CCC)CCC3, the Potency is reported as inconclusive: 20.6 µM [inhibitor, single point]. With COc1ccc(Cl)cc1NC(=O)COC(=O)CC(C)(C)CC1=NS(=O)(=O)c2ccccc2N1 the Potency was inconclusive: 23.1 µM [inhibitor, single point]. With Cc1cccc(NC(=O)CN(C)S(=O)(=O)c2cccc3cccnc23)c1 the Potency was inconclusive: 29.1 µM [inhibitor, partial curve, poor fit]. With Cc1c(Cl)cccc1NC(=O)CCn1cnnn1 the Potency was “inactive”. With CCN(CC)CCCNC(=O)C(C)n1nc(C)n2c(cc3occc32)c1=O (stereo not drawn) the Potency was “inactive”. In the case of Cc1cc(C)n2nc(C(=O)OCC(=O)NCc3ccc(F)cc3)nc2n1, the Potency is reported as “inactive”. For CC(=O)Oc1ccc(C2=Cc3ccc(OC(C)=O)cc3OC2C)cc1 (stereo not drawn), the Potency was active: 18.4 µM. With Cc1cnc(CN2CCc3c([nH]c4ccccc34)C2C2CCCCC2)[nH]1 (stereo not drawn) the Potency was inconclusive: 29.1 µM [inhibitor, single point].
